# Experimental data reported in the supplement of paper PMC4166925.
# ± gives the standard deviation of the averaged measurements. The full ranking holds about 33,000 sequences; the median of “E-score (dimensionless, -0.5 to 0.5)” is about -0.049, and the highest 2% start at about 0.37. The list shows a part of the results.
# Tested on: T1, PmTbr T-box DNA-binding domain (GST fusion)
# T1 sequence: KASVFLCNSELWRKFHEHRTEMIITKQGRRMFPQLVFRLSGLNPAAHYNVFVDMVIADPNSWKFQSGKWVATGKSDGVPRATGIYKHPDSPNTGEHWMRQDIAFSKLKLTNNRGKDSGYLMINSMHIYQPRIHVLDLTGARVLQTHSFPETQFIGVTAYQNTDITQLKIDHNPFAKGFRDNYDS
# Assay: PBM E-score of 8-mer (E-score (dimensionless, -0.5 to 0.5)); Tbr is Tbrain of the sea star Patiria miniata (Pm) or the sea urchin Strongylocentrotus purpuratus (Sp); higher = stronger binding preference; most listed sequences are background and not binding sites
# Details: the construct has about 5 more residues each side
# Summary of the method: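 Primer extension turned Universal Agilent oligonucleotide arrays double-stranded. They were incubated with 200 nM protein in PBS (pH 7.5); the protein was a GST-fused Tbr T-box DNA-binding domain expressed in BL21 E. coli at 20 °C and purified on glutathione. Every ungapped 8-mer was scored from the scanned, quantified probe intensities, and the Universal PBM Analysis Suite gave each an enrichment E-score averaged over duplicate arrays.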
row,Sequence,PBM E-score of 8-mer
1,CATGGCCG,-0.242 ± 0.11
2,GATCCGTA,-0.00694 ± 0.091
3,CCTTGAGC,-0.11 ± 0.019
4,ATGGAAGG,-0.139 ± 0.044
5,CAAGAATA,-0.222 ± 0.0028
6,ATCTACGC,0.0498 ± 0.0073
7,TAAAAGAA,-0.0479 ± 0.0075
8,TGGTAGAA,-0.00365 ± 0.062
9,CCCTACCG,-0.151 ± 0.071
10,CATACTGC,-0.0383 ± 0.049
11,CAGGCGGG,-0.0145 ± 0.026
12,AACAGTCA,0.0868 ± 0.012
13,ACAGTCAT,-0.0227 ± 0.012
14,ACCGCTCC,-0.244 ± 0.031
15,AGTGGCAC,0.334 ± 0.008
16,CGGTAACC,-0.143 ± 0.04
17,GTTCAAAC,-0.13 ± 0.059
18,ATGAAGAG,-0.245 ± 0.035
19,CTTCGAAA,-0.0538 ± 0.053
20,AAGTGAGG,0.2407 ± 0.0011
21,ATGACTCA,-0.058 ± 0.044
22,CCATGCCC,-0.148 ± 0.011
23,CCTGGATC,-0.1384 ± 0.00035
24,ATCTTCTC,-0.04412 ± 4.2e-05
25,CTGCGCAG,0.0276 ± 0.062

row,Sequence,PBM E-score of 8-mer
1,CTCACGCA,0.306 ± 0.019
2,CGAACCTA,-0.191 ± 0.074
3,ACTTGTTA,0.372 ± 0.044
4,ACCCGCAA,-0.0362 ± 0.0055
5,ATTATAAC,0.0889 ± 0.037
6,CTGGGCCA,-0.217 ± 0.042
7,GCGACTGA,-0.0494 ± 0.013
8,GTGTTAGA,0.419 ± 0.0094
9,AGGAGTCG,0.0886 ± 0.023
10,ATGCCAAC,0.0888 ± 0.00082
11,CAACGATA,-5e-05 ± 0.011
12,AAATCTAG,-0.091 ± 0.019
13,CAGCACAG,-0.0973 ± 0.029
14,AGATCCGC,-0.0397 ± 0.13
15,ATTAGTGC,0.18 ± 0.041
16,TCAGGCGA,0.128 ± 0.0029
17,GCTGGCAA,0.0997 ± 0.018
18,CACAGCGG,0.184 ± 0.0041
19,AATAGGGA,-0.0296 ± 0.086
20,GAACAATA,-0.139 ± 0.042
21,CAGAAGAG,-0.173 ± 0.051
22,ATTCCGTG,-0.106 ± 0.03
23,ACTATCTA,0.104 ± 0.0045
24,AAATTTGT,0.087 ± 0.045
25,AGGAAGAT,-0.137 ± 0.069

row,Sequence,PBM E-score of 8-mer
1,GAGAAGAC,-0.0151 ± 0.023
2,CCGTCGCG,0.106 ± 0.099
3,GGTGTTTA,0.399 ± 0.015
4,GAGCAAGA,-0.253 ± 0.034
5,CAGCCTCG,-0.19 ± 0.035
6,CCGAGAGG,0.00471 ± 0.011
7,GTTCGGGA,-0.192 ± 0.024
8,CCTGCCCG,-0.0748 ± 0.091
9,AGAATGTG,0.314 ± 0.042
10,GTGAGATA,0.317 ± 0.015
11,ATCCGAGC,-0.172 ± 0.055
12,CCACGAAG,-0.0956 ± 0.0077
13,CTTTACCA,-0.0205 ± 0.071
14,CCGTGCCG,0.02971 ± 9.2e-05
15,AGACTAAA,-0.0678 ± 0.053
16,CACGCCAG,0.207 ± 0.033
17,CGTACAAA,-0.15 ± 0.024
18,AGTCGCAG,0.0399 ± 0.06
19,TCCTACAA,-0.231 ± 0.04
20,GGTTGGAA,-0.0253 ± 0.034
21,ACCAGGCT,-0.018 ± 0.016
22,GCCCCGTA,-0.0249 ± 0.0021
23,GGCCACTA,-0.146 ± 0.012
24,CAACCCAA,-0.139 ± 0.029
25,TGCCCACA,-0.0968 ± 0.015

row,Sequence,PBM E-score of 8-mer
1,ATGAGTAG,-0.0171 ± 0.034
2,CGAGACAG,-0.0127 ± 0.069
3,ACGTTGTC,0.135 ± 0.013
4,GCCCTAGA,-0.11 ± 0.022
5,CATGAGCG,0.0193 ± 0.096
6,GACCTATC,-0.0538 ± 0.05
7,AATAAACT,-0.157 ± 0.12
8,GAAAGTTA,-0.053 ± 0.074
9,AAGCACGC,-0.113 ± 0.015
10,ATGGTCCG,-0.0567 ± 0.063
11,CCCCCCGA,-0.2442 ± 1.4e-05
12,GTCCTGCA,-0.173 ± 0.012
13,ACATTTCG,0.0484 ± 0.0049
14,CAAGAAAC,-0.223 ± 0.047
15,CGGTGTTA,0.37 ± 0.0083
16,ATGCGGGC,-0.315 ± 0.036
17,ACATCAGT,0.0692 ± 0.042
18,ATGCACGC,-0.171 ± 0.14
19,CGTACAAC,-0.00585 ± 0.067
20,GATCGCCC,-0.0613 ± 0.016
21,ACTAGGTC,-0.143 ± 0.0081
22,TCTTATCA,-0.0374 ± 0.16
23,CGATTTAC,0.143 ± 0.051
24,AATGTTTA,-0.1421 ± 0.0011
25,ATTACCCA,-0.183 ± 0.11

row,Sequence,PBM E-score of 8-mer
1,CGACGGCC,-0.169 ± 0.035
2,ACGAGCCG,-0.0699 ± 0.13
3,ACAAGCTA,-0.0967 ± 0.014
4,TGAATTAA,-0.157 ± 0.12
5,AGATTGGG,-0.299 ± 0.04
6,CCTTCACC,0.0909 ± 0.047
7,ACGGGGTG,0.313 ± 0.01
8,AGGAATTC,-0.282 ± 0.041
9,AAAACGCT,-0.182 ± 0.034
10,CAACTATA,-0.125 ± 0.023
11,ACCGTCCA,-0.243 ± 0.045
12,CACCGCGA,0.211 ± 0.016
13,ATGCAGCA,-0.1 ± 0.0058
14,CAACGGTG,0.176 ± 0.058
15,AAAATTTC,-0.126 ± 0.1
16,ACGTCAAT,0.0492 ± 0.055
17,AACGGTCG,-0.112 ± 0.041
18,CCTCGGCG,-0.188 ± 0.042
19,AGGAGCCC,-0.363 ± 0.032
20,AAGTCGAC,0.16 ± 0.026
21,TGGGCTAA,-0.121 ± 0.0082
22,AAAAAAAG,-0.11 ± 0.085
23,AAAACACA,0.154 ± 0.065
24,CCTCAGTC,-0.0578 ± 0.014
25,AAATGCTC,-0.031 ± 0.035

row,Sequence,PBM E-score of 8-mer
1,CTTCTTAA,-0.116 ± 0.058
2,AGGGCGCG,0.304 ± 0.0072
3,AGCAATTC,0.0904 ± 0.015
4,GATGAAAA,0.111 ± 0.0026
5,CTTCAACA,0.0811 ± 0.14
6,CGCCCGAA,0.0189 ± 0.025
7,AAACTCAG,-0.214 ± 0.023
8,CCACCATC,0.0197 ± 0.0012
9,ATTCCATA,-0.142 ± 0.025
10,GGAGAAAC,-0.02 ± 0.066
11,TCACCGGA,-0.269 ± 0.012
12,CCCCACAC,0.285 ± 0.0031
13,CCCCTTTC,-0.124 ± 0.061
14,CGCGGCGC,0.154 ± 0.0014
15,ACATAGAT,-0.0623 ± 0.015
16,CAAGAGAC,-0.0802 ± 0.042
17,ATCGCTGA,0.0416 ± 0.057
18,ATGTGATG,0.338 ± 0.025
19,ATCAAAGC,-0.293 ± 0.0095
20,TAGCGAAA,0.0843 ± 0.097
21,TAGCTACA,-0.184 ± 0.076
22,ACAGCTGT,0.312 ± 0.0093
23,TCGGCCGA,0.059 ± 0.0033
24,AGCCCAGG,-0.302 ± 0.023
25,TCCAGACA,0.0343 ± 0.049

row,Sequence,PBM E-score of 8-mer
1,GACTTGTA,-0.144 ± 0.12
2,CCTCCTCA,0.123 ± 0.0097
3,AACTGAGT,-0.0725 ± 0.037
4,AATGGTAT,-0.0355 ± 0.096
5,AGACACGC,0.09356 ± 0.00023
6,GTAACTCA,0.0277 ± 0.031
7,GAGACGCC,-0.14242 ± 7.1e-06
8,ACACTGCG,0.276 ± 0.023
9,CAAACGGA,-0.0347 ± 0.041
10,AAGGAGGG,-0.0858 ± 0.011
11,CTACCTCC,-0.0456 ± 0.027
12,AAAGTGCA,0.0982 ± 0.0028
13,AAAAAGGC,0.0561 ± 0.038
14,ACCCATAC,-0.0348 ± 0.016
15,ACTGCCCT,-0.0758 ± 0.018
16,CGTGGCCC,-0.148 ± 0.091
17,AATCTCGA,-0.0492 ± 0.025
18,CGGATAAG,-0.0382 ± 0.032
19,GGGGTGCA,0.1329 ± 0.00018
20,CGACTGCG,-0.0704 ± 0.032
21,ACCATATA,-0.241 ± 0.095
22,ACCAAATG,-0.0173 ± 0.0011
23,CGAAACAA,0.00218 ± 0.014
24,ACCCTAGT,0.00685 ± 0.053
25,GTCATGAC,-0.0323 ± 0.014

row,Sequence,PBM E-score of 8-mer
1,AAGAGCGA,-0.169 ± 0.029
2,GAAACTCA,-0.0114 ± 0.018
3,GCAATCCA,-0.0287 ± 0.016
4,ATTTCGAC,0.13 ± 0.058
5,GGGCCCAC,-0.094 ± 0.051
6,ACCGCTCA,-0.084 ± 0.012
7,AATTTGAT,-0.152 ± 0.12
8,CGTCGCTC,-0.0135 ± 0.0094
9,CGGGAGTA,-0.149 ± 0.033
10,GCAACAGC,0.078 ± 0.014
11,ACTCGGAA,-0.122 ± 0.051
12,ACAACCGC,0.141 ± 0.013
13,TTCAGCAA,0.17 ± 0.04
14,CCCCAATC,-0.111 ± 0.0088
15,TATCGGCA,0.0555 ± 0.032
16,CACGCGGC,0.0479 ± 0.054
17,CTCTGTTC,0.00273 ± 0.033
18,CTAGAAAA,-0.0306 ± 0.063
19,CAATACTC,-0.0735 ± 0.01
20,ATGAGCTC,-0.104 ± 0.0054
21,CGATGGGC,-0.0763 ± 0.1
22,AAGGACAC,-0.0192 ± 0.027
23,ACTGTCGC,0.259 ± 0.056
24,GGTAAAAA,-0.0311 ± 0.073
25,GCTAAAGA,0.105 ± 0.017

row,Sequence,PBM E-score of 8-mer
1,TCTGATAA,0.0772 ± 0.036
2,TATCCAAA,-0.353 ± 0.065
3,GTCCTTTA,-0.182 ± 0.056
4,GGCGGGAC,0.0218 ± 0.01
5,ACCTCGTC,0.197 ± 0.019
6,CGCGCCAG,0.2 ± 0.049
7,GGCTTCGA,-0.094 ± 0.0067
8,CACAAAGA,-0.117 ± 0.05
9,ACGTAGAT,0.0235 ± 0.01
10,AGGACCAC,-0.253 ± 0.12
11,GATTCCAC,-0.12153 ± 0.00011
12,GGTGGAAA,0.0951 ± 0.013
13,GTGCCTCA,0.0613 ± 0.045
14,GGATAATA,-0.143 ± 0.061
15,GTCGCAAC,0.29 ± 0.005
16,CTAACATA,0.0161 ± 0.011
17,AAAGATTC,-0.087 ± 0.036
18,AAGGTGAC,0.426 ± 0.011
19,GGCACGGA,-0.03 ± 0.015
